29 compounds from PMC11995724, “Antibiotic target discovery by integrated phenotypic and activity-based profiling of electrophilic fragments” (Cell chemical biology, 2025) can be followed below.

Among all 3,200 compounds or so, about 75 (2%) showed an effect of 50% or more. The list shows a part of the results.

The experiment has as its system T1, S. aureus MSSA476.
T1 construct: MSSA476
More on the design: species or system S. aureus MSSA476 (TSB) or V. cholerae SAD30 (LB); 384-well bacterial growth screen at 25 uM, OD600 relative to DMSO control. The settings on record: relative growth, OD600, TSB; 25 µM; inhibitor.
Regarding `C=CC(=O)N1CCCCC1c1noc(C2CC2)n1` (centres unmarked) [3-K12, 1-[2-(5-cyclopropyl-1,2,4-oxadiazol-3-yl)piperidin-1-yl]prop-2-en-1-one], the “% of control remaining” value came to 93.3391%.
As to `O=C(CCl)N1N=C(C=Cc2ccco2)CC1c1ccco1` (centres unmarked) [4-M22, 2-chloro-1-[5-(furan-2-yl)-3-[2-(furan-2-yl)ethenyl]-4,5-dihydro-1H-pyrazol-1-yl]ethan-1-one], the “% of control remaining” value turned out to be 86.8985%.
For `CC(Cl)C(=O)N1CCNC(=O)C1Cc1nc2ccccc2o1` (centres unmarked) [6-P03, 3-[(1,3-benzoxazol-2-yl)methyl]-4-(2-chloropropanoyl)piperazin-2-one], the “% of control remaining” value is 97.3171%.
The value for `O=C(CCl)N(Cc1ccccc1)CC(F)(F)F` [4-B20, N-benzyl-2-chloro-N-(2,2,2-trifluoroethyl)acetamide] was 114.34%; that for `N#CC(=Cc1cc([N+](=O)[O-])ccc1Cl)C(N)=O` [8-F21, 3-(2-chloro-5-nitrophenyl)-2-cyanoprop-2-enamide] was 115.851%; that for `COc1cccc2c1CCC2(CO)NC(=O)CCl` (centres unmarked) [5-C20, 2-chloro-N-[1-(hydroxymethyl)-4-methoxy-2,3-dihydro-1H-inden-1-yl]acetamide] was 98.3607%.
The value for `CC(Cl)C(=O)N(C)C1CCCCC1` (centres unmarked) [5-J04, 2-chloro-N-cyclohexyl-N-methylpropanamide] was 100.546%; that for `CCCN(Cc1ccc(C)cc1)C(=O)CCl` [5-J09, 2-chloro-N-[(4-methylphenyl)methyl]-N-propylacetamide] was 98.3607%; that for `O=C(CCl)Nc1ccc(S(=O)(=O)c2ccc(F)cc2)cc1` [6-O14, 2-chloro-N-[4-(4-fluorobenzenesulfonyl)phenyl]acetamide] was 109.268%.
The value for `O=C(CCl)N(Cc1ccccc1)Cc1cc2n(n1)CCCC2` [5-L03, N-benzyl-2-chloro-N-({4H,5H,6H,7H-pyrazolo[1,5-a]pyridin-2-yl}methyl)acetamide] was 92.1676%.
In the case of `C=CC(=O)N(C)CC(=O)N1CCCC(CC(N)=O)CC1` (centres unmarked) [3-C20, N-{2-[4-(carbamoylmethyl)azepan-1-yl]-2-oxoethyl}-N-methylprop-2-enamide], the “% of control remaining” value is on record as 104.832%.
On to `O=C(CCl)NCc1ccc(C(=O)N2CCCC2)cc1` [6-G04, 2-chloro-N-{[4-(pyrrolidine-1-carbonyl)phenyl]methyl}acetamide], for which the “% of control remaining” value is 91.5122%.
In the case of `COc1ccc(C2=NN(C(=O)CCl)C(c3ccco3)C2)cc1` (centres unmarked) [4-N19, 2-chloro-1-[5-(furan-2-yl)-3-(4-methoxyphenyl)-4,5-dihydro-1H-pyrazol-1-yl]ethan-1-one], the “% of control remaining” value is reported as 78.5136%.
As for `C=CC(=O)NCC12CC3CC(CC(C3)C1)C2` [1-F17, N-[(adamantan-1-yl)methyl]prop-2-enamide], the figure is 100.923%; as for `COc1cc(S(=O)(=O)N2CCOCC2)ccc1NC(=O)CCl` [6-L12, 2-chloro-N-[2-methoxy-4-(morpholine-4-sulfonyl)phenyl]acetamide], 90.4878%.
Consider `C/C(O)=C(\C#N)C(=O)Nc1ccc(-c2ccccc2Cl)cc1` [9-P22, (2Z)-N-{2'-chloro-[1,1'-biphenyl]-4-yl}-2-cyano-3-hydroxybut-2-enamide], for which the “% of control remaining” value came out at 50.9363%.
The value for `Cc1csc(C2(NC(=O)CCl)CCOCC2)n1` [7-J03, 2-chloro-N-[4-(4-methyl-1,3-thiazol-2-yl)oxan-4-yl]acetamide] was 98.2732%.
The value for `CC(Cl)C(=O)N1CCc2sccc2C1c1cccs1` (centres unmarked) [7-K07, 2-chloro-1-[4-(thiophen-2-yl)-4H,5H,6H,7H-thieno[3,2-c]pyridin-5-yl]propan-1-one] was 95.7614%; that for `CCOc1cc2c(cc1C=C(C#N)C(N)=O)OC(C)C2` (centres unmarked) [9-D04, 2-cyano-3-(5-ethoxy-2-methyl-2,3-dihydro-1-benzofuran-6-yl)prop-2-enamide] was 91.985%; that for `CC(Cl)C(=O)N1CCN(Cc2ccc(C(F)(F)F)cc2)C(=O)C1` (centres unmarked) [6-N19, 4-(2-chloropropanoyl)-1-{[4-(trifluoromethyl)phenyl]methyl}piperazin-2-one] was 107.22%.
As for `N#CC(=Cc1ccc(O)cc1)C(=O)NCc1ccc(Cl)cc1` [8-B16, N-[(4-chlorophenyl)methyl]-2-cyano-3-(4-hydroxyphenyl)prop-2-enamide], the figure is 76.0166%.
With `CC(Cl)C(=O)N1CCOCC1c1cccn1C` (centres unmarked) [7-A09, 2-chloro-1-[3-(1-methyl-1H-pyrrol-2-yl)morpholin-4-yl]propan-1-one], the “% of control remaining” value is given as 81.9466%.
With `CCc1ccccc1NC(=O)CN(C)C(=O)CCl` [6-L06, 2-chloro-N-{[(2-ethylphenyl)carbamoyl]methyl}-N-methylacetamide], the “% of control remaining” value came to 98.3415%.
The value for `CC(NC(=O)CCl)C(=O)N1c2ccccc2CC1C` (centres unmarked) [7-N16, 2-chloro-N-[1-(2-methyl-2,3-dihydro-1H-indol-1-yl)-1-oxopropan-2-yl]acetamide] was 94.5055%; that for `N#CC(=Cc1ccncc1)C(=O)Nc1ccccc1Cl` [8-N17, N-(2-chlorophenyl)-2-cyano-3-(pyridin-4-yl)prop-2-enamide] was 114.855%; that for `C=CC(=O)N1CC(n2nc(C)cc2C)C1` [3-B04, 1-[3-(3,5-dimethyl-1H-pyrazol-1-yl)azetidin-1-yl]prop-2-en-1-one] was 100.305%.
For the compound `CC(Cl)C(=O)N1CCN(C(=O)c2ccc3ccccc3c2)CC1` (centres unmarked) [7-E07, 2-chloro-1-[4-(naphthalene-2-carbonyl)piperazin-1-yl]propan-1-one], the “% of control remaining” value is 102.983%.
`C=CC(=O)Nc1ccc(N2CCN(CC)CC2)cc1` [1-D12, N-[4-(4-ethylpiperazin-1-yl)phenyl]prop-2-enamide]: the “% of control remaining” value is on record as 102.33%.
The value for `Cc1cc(C(=O)CCl)co1` [10-A13, 2-chloro-1-(5-methylfuran-3-yl)ethan-1-one] was 133.438%.
